Numbering of substitutions follows the chain as printed; changes in the protein carry UniProt numbers. Some of the results follow.

Sequences and labels used below:
B1: CGGAUUU (DNA:RNA)
RNA: GGGAGACCGGAAUUCAGAUUGUCCCGGAUUUUUAAAUCCCGUCGUAGCCACCA
DNA 1: CAATCTGAATTCCGGTCTCCC
DNA 2: TGGTGGCTACGACGGGATT
B2: AUAUAGG (DNA:RNA)
RNA: GGGAGACCGGAAUUCAGAUUGUCCAUAUAGGUUAAAUCCCGUCGUAGCCACCA
DNA 1: CAATCTGAATTCCGGTCTCCC
DNA 2: TGGTGGCTACGACGGGATT
B3: UUGGUUG (DNA:RNA)
RNA: B1 RNA with C25U, G26U, A28G, U31G
DNA 1: CAATCTGAATTCCGGTCTCCC
DNA 2: TGGTGGCTACGACGGGATT
B4: CACCCGU (DNA:RNA)
RNA: B1 RNA with G26A, G27C, A28C, U29C, U30G
DNA 1: CAATCTGAATTCCGGTCTCCC
DNA 2: TGGTGGCTACGACGGGATT
B5: AUCGCAG (DNA:RNA)
RNA: B2 RNA with A27C, U28G, A29C, G30A
DNA 1: CAATCTGAATTCCGGTCTCCC
DNA 2: TGGTGGCTACGACGGGATT
B6: AGAAUUU (DNA:RNA)
RNA: B1 RNA with C25A, G27A
DNA 1: CAATCTGAATTCCGGTCTCCC
DNA 2: TGGTGGCTACGACGGGATT
B7: ACUGCAA (DNA:RNA)
RNA: B2 RNA with U26C, A27U, U28G, A29C, G30A, G31A
DNA 1: CAATCTGAATTCCGGTCTCCC
DNA 2: TGGTGGCTACGACGGGATT
B8: CCGACGG (DNA:RNA)
RNA: B1 RNA with G26C, U29C, U30G, U31G
DNA 1: CAATCTGAATTCCGGTCTCCC
DNA 2: TGGTGGCTACGACGGGATT
B9: CCAGUGU (DNA:RNA)
RNA: B1 RNA with G26C, G27A, A28G, U30G
DNA 1: CAATCTGAATTCCGGTCTCCC
DNA 2: TGGTGGCTACGACGGGATT
B10: GGGUUUC (DNA:RNA)
RNA: B1 RNA with C25G, A28U, U31C
DNA 1: CAATCTGAATTCCGGTCTCCC
DNA 2: TGGTGGCTACGACGGGATT
B11: CGCGCUA (DNA:RNA)
RNA: B1 RNA with G27C, A28G, U29C, U31A
DNA 1: CAATCTGAATTCCGGTCTCCC
DNA 2: TGGTGGCTACGACGGGATT
B12: UGCCUUA (DNA:RNA)
RNA: B1 RNA with C25U, G27C, A28C, U31A
DNA 1: CAATCTGAATTCCGGTCTCCC
DNA 2: TGGTGGCTACGACGGGATT
B13: UUAAAUA (DNA:RNA)
RNA: B2 RNA with A25U, U28A, G30U, G31A
DNA 1: CAATCTGAATTCCGGTCTCCC
DNA 2: TGGTGGCTACGACGGGATT
B14: GAACAGA (DNA:RNA)
RNA: B2 RNA with A25G, U26A, U28C, G31A
DNA 1: CAATCTGAATTCCGGTCTCCC
DNA 2: TGGTGGCTACGACGGGATT
B15: CGCUGUG (DNA:RNA)
RNA: B1 RNA with G27C, A28U, U29G, U31G
DNA 1: CAATCTGAATTCCGGTCTCCC
DNA 2: TGGTGGCTACGACGGGATT
B16: UUCGACC (DNA:RNA)
RNA: B2 RNA with A25U, A27C, U28G, G30C, G31C
DNA 1: CAATCTGAATTCCGGTCTCCC
DNA 2: TGGTGGCTACGACGGGATT
B17: GCCUGCU (DNA:RNA)
RNA: B2 RNA with A25G, U26C, A27C, A29G, G30C, G31U
DNA 1: CAATCTGAATTCCGGTCTCCC
DNA 2: TGGTGGCTACGACGGGATT
B18: UUCUUCC (DNA:RNA)
RNA: B2 RNA with A25U, A27C, A29U, G30C, G31C
DNA 1: CAATCTGAATTCCGGTCTCCC
DNA 2: TGGTGGCTACGACGGGATT
B19: UUGCUAC (DNA:RNA)
RNA: B1 RNA with C25U, G26U, A28C, U30A, U31C
DNA 1: CAATCTGAATTCCGGTCTCCC
DNA 2: TGGTGGCTACGACGGGATT
B20: UAUCCCU (DNA:RNA)
RNA: B1 RNA with C25U, G26A, G27U, A28C, U29C, U30C
DNA 1: CAATCTGAATTCCGGTCTCCC
DNA 2: TGGTGGCTACGACGGGATT
B21: AAGAUCC (DNA:RNA)
RNA: B1 RNA with C25A, G26A, U30C, U31C
DNA 1: CAATCTGAATTCCGGTCTCCC
DNA 2: TGGTGGCTACGACGGGATT
B22: GUACGAG (DNA:RNA)
RNA: B2 RNA with A25G, U28C, A29G, G30A
DNA 1: CAATCTGAATTCCGGTCTCCC
DNA 2: TGGTGGCTACGACGGGATT
B23: GACUAAU (DNA:RNA)
RNA: B2 RNA with A25G, U26A, A27C, G30A, G31U
DNA 1: CAATCTGAATTCCGGTCTCCC
DNA 2: TGGTGGCTACGACGGGATT
B24: CUAGAUG (DNA:RNA)
RNA: B2 RNA with A25C, U28G, G30U
DNA 1: CAATCTGAATTCCGGTCTCCC
DNA 2: TGGTGGCTACGACGGGATT
B25: CUUCCCU (DNA:RNA)
RNA: B1 RNA with G26U, G27U, A28C, U29C, U30C
DNA 1: CAATCTGAATTCCGGTCTCCC
DNA 2: TGGTGGCTACGACGGGATT
B26: ACAUAAC (DNA:RNA)
RNA: B2 RNA with U26C, G30A, G31C
DNA 1: CAATCTGAATTCCGGTCTCCC
DNA 2: TGGTGGCTACGACGGGATT
B27: CCUGUCA (DNA:RNA)
RNA: B1 RNA with G26C, G27U, A28G, U30C, U31A
DNA 1: CAATCTGAATTCCGGTCTCCC
DNA 2: TGGTGGCTACGACGGGATT
B28: CAUUGCA (DNA:RNA)
RNA: B2 RNA with A25C, U26A, A27U, A29G, G30C, G31A
DNA 1: CAATCTGAATTCCGGTCTCCC
DNA 2: TGGTGGCTACGACGGGATT
B29: CGUAGGC (DNA:RNA)
RNA: B1 RNA with G27U, U29G, U30G, U31C
DNA 1: CAATCTGAATTCCGGTCTCCC
DNA 2: TGGTGGCTACGACGGGATT
B30: UUGUGUC (DNA:RNA)
RNA: B2 RNA with A25U, A27G, A29G, G30U, G31C
DNA 1: CAATCTGAATTCCGGTCTCCC
DNA 2: TGGTGGCTACGACGGGATT
B31: CACUGUA (DNA:RNA)
RNA: B1 RNA with G26A, G27C, A28U, U29G, U31A
DNA 1: CAATCTGAATTCCGGTCTCCC
DNA 2: TGGTGGCTACGACGGGATT

In the test the target is T1, RBFOX1 RRM (Homo sapiens, UniProt Q9NWB1 109-208).
T1 sequence: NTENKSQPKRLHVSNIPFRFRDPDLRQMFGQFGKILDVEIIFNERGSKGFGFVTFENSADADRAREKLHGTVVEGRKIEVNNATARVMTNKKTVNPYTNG
Nature of the test: EMSA; HiTS-Eq, 1 nM pool, 10 min; buffer printed only for the single-RNA assays: 10 mM Tris pH 7.5, 150 mM NaCl, 3.4 mM EDTA, 0.001% NP-40, 30 C. The note with it: tags: His6 N-terminal (pET28a); label: 5' 32P. An outline of the steps:
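Relative association constants, normalised to the cognate motif, were derived by comparing read counts of each RNA species with those of the control reaction. The RNA sequenced was the free fraction, separated by 8% native PAGE after a 10 min equilibration in 50 µL of 1 nM 5′-radiolabelled RNA (7 randomized nucleotides) with increasing concentrations of purified wild-type or mutant RbFox RRM.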
Consider B1, for which the binding signal is 0.0218 KA relative to UGCAUGU.
On to B2, for which the binding signal was 0.00541 KA relative to UGCAUGU.
In the case of B3, the binding signal was 0.0398 KA relative to UGCAUGU.
As to B4, the binding signal was 0.00231 KA relative to UGCAUGU.
For B5, the binding signal was 0.00858 KA relative to UGCAUGU.
The same measure for B6: 0.00504 KA relative to UGCAUGU; for B7: 0.00839 KA relative to UGCAUGU; for B8: 0.00925 KA relative to UGCAUGU.
B9: the binding signal was 0.0133 KA relative to UGCAUGU.
The same measure for B10: 0.0237 KA relative to UGCAUGU.
For B11, the binding signal is 0.00984 KA relative to UGCAUGU.
Take B12: the binding signal is 0.00671 KA relative to UGCAUGU.
Regarding B13, the binding signal is 0.000772 KA relative to UGCAUGU.
With B14, the binding signal is 0.00875 KA relative to UGCAUGU.
The same measure for B15: 0.0206 KA relative to UGCAUGU.
The figure for B16 is 0.00679 KA relative to UGCAUGU; for B17 it is 0.0359 KA relative to UGCAUGU; for B18 it is 0.00881 KA relative to UGCAUGU.
Consider B19, for which the binding signal is 0.015 KA relative to UGCAUGU.
For B20, the binding signal was 0.00105 KA relative to UGCAUGU.
In the case of B21, the binding signal was 0.00408 KA relative to UGCAUGU.
Turning to B22, the binding signal was 0.0101 KA relative to UGCAUGU.
Consider B23, for which the binding signal is 0.00799 KA relative to UGCAUGU.
As for B24, the binding signal was 0.0103 KA relative to UGCAUGU.
The same measure for B25: 0.00488 KA relative to UGCAUGU; for B26: 0.00142 KA relative to UGCAUGU; for B27: 0.00585 KA relative to UGCAUGU.
The figure for B28 is 0.00927 KA relative to UGCAUGU; for B29 it is 0.0114 KA relative to UGCAUGU; for B30 it is 0.0254 KA relative to UGCAUGU.
The figure for B31 is 0.00253 KA relative to UGCAUGU.

For the origin of these results see PMC9911399, “Two distinct binding modes provide the RNA-binding protein RbFox with extraordinary sequence specificity”.
